Paper PMC7177742, “Zinc Differentially Modulates the Assembly of Soluble and Polymerized Vimentin” (International Journal of Molecular Sciences, 2020)

B2: Human vimentin C328S (natural protein)
chain: not shown
notes: vimentin, human, with the single cysteine C328 changed to serine; also called C328S mutant; cysteine to serine mutant; source: E. coli, purified by established protocols; obtained from Biomedal S.L. (Spain)

Assays:
Human vimentin C328S = biological target: B2; experiment: fluorescence polarisation; fluorescence anisotropy: 1 uM unlabeled vimentin with 50 nM Alexa 488-labeled vimentin as tracer, increasing ZnCl2, 26 C, 96 well black microplate; conditions: both partners purified
[1] = biological target: the molecule itself; experiment: electron microscopy (negative stain); soluble vimentin 0.2 mg/mL in 5 mM PIPES-Na pH 7.0, 0.1 mM DTT, with 10 or 100 uM ZnCl2 1 h at r.t., fixed with glutaraldehyde; lateral association of oligomers into fibrils

B1: Alexa 488-labeled vimentin C328S (natural protein)
chain: not shown
modifications: Alexa Fluor 488 on amino groups, 0.2 to 0.9 moles of fluorophore per mole of protein
notes: vimentin, human, C328S, as m2, covalently labeled in the amino groups; Used as a tracer (50 nM) with 1 uM unlabeled vimentin C328S; source: E. coli, purified; obtained from Biomedal S.L. (Spain); labeled with Alexa Fluor 488 carboxylic acid succinimidyl ester, free dye removed by gel filtration
binding result (Human vimentin C328S): binds

B2
binding result [1]: binds
